# This is one part of the list.
# B1: PhoQ; a variant is named by its letters at X, in order, P23837 (parent)
# chain: MKKLLRLFFPLSLRVRFLLATAAVVLVLSLAYGMVALIGYSVSFDKTTFRLLRGESNLFYTLAKWENNKLHVELPENIDKQSPTMTLIYDENGQLLWAQRDVPWLMKMIQPDWLKSNGFHEIEADVNDTSLLLSGDHSIQQQLQEVREDDDDAEMTHSVAVNVYPATSRMPKLTIVVVDTIPVELKSSYMVWSWFIYVLSANLLLVIPLLWVAAWWSLRPIEALAKEVRELEEHNRELLNPATTRELTSLVRNLNRLLKSERERYDKYRTTLTDLTHSLKTPLXXLQXXLRSLRSEKMSVSDAEPVMLEQISRISQQIGYYLHRASMRGGTLLSRELHPVAPLLDNLTSALNKVYQRKGVNISLDISPEISFVGEQNDFVEVMGNVLDNACKYCLEFVEISARQTDEHLYIVVEDDGPGIPLSKREVIFDRGQRVDTLRPGQGVGLAVAREITEQYEGKIVAGESMLGGARMEVIFGRQHSAPKDE
# Variants of: B1
# Test: enrichment ratio after two sorts for PhoP signalling (ratio (wild type AVST 3.29)); higher = more functional
# Conditions: with PhoP (E. coli)
row,Variant,enrichment ratio
1,SQSS,11.6
2,IHKV,≤ 0.25
3,SVEW,≤ 0.25
4,KGVS,≤ 0.25
5,VCRY,≤ 0.25
6,DYNI,≤ 0.25
7,YGGV,≤ 0.25
8,IGAS,≤ 0.25
9,QMLK,≤ 0.25
10,LNRR,≤ 0.25
11,NNVY,≤ 0.25
12,FIIN,1.02
13,MRRT,≤ 0.25
14,ILTG,≤ 0.25
15,PDFA,≤ 0.25
16,KDRA,≤ 0.25
17,ATKW,≤ 0.25
18,WGAL,≤ 0.25
19,QFNR,≤ 0.25
20,EQDI,≤ 0.25
21,SIAQ,10.9
22,YFAS,≤ 0.25
23,YIST,0.468
24,GPMG,≤ 0.25

row,Variant,enrichment ratio
1,GNQD,≤ 0.25
2,AVIG,9.96
3,STAD,≤ 0.25
4,KFAY,≤ 0.25
5,DYGY,≤ 0.25
6,EPVS,≤ 0.25
7,KCST,≤ 0.25
8,NYEF,≤ 0.25
9,GYGL,≤ 0.25
10,PCNH,≤ 0.25
11,SGHY,≤ 0.25
12,ELGI,≤ 0.25
13,TDEK,≤ 0.25
14,RWCI,≤ 0.25
15,GNNT,≤ 0.25
16,FASP,≤ 0.25
17,YLSL,≤ 0.25
18,ETHK,≤ 0.25
19,IVQD,≤ 0.25
20,LNYF,≤ 0.25
21,WCTI,≤ 0.25
22,PRAY,≤ 0.25
23,RNDV,≤ 0.25
24,TGDA,≤ 0.25

row,Variant,enrichment ratio
1,YPIR,≤ 0.25
2,ILYL,≤ 0.25
3,SKSN,≤ 0.25
4,IDYS,≤ 0.25
5,TLWS,≤ 0.25
6,QQLG,2.01
7,ECAA,≤ 0.25
8,SPFR,≤ 0.25
9,HSFG,≤ 0.25
10,IQVY,≤ 0.25
11,YSML,14.4
12,AMSA,8.08
13,ARMH,≤ 0.25
14,LCPY,≤ 0.25
15,LIDW,≤ 0.25
16,KPRD,≤ 0.25
17,ENAT,≤ 0.25
18,EFKY,≤ 0.25
19,SPMP,≤ 0.25
20,LWMY,≤ 0.25
21,RKQK,≤ 0.25
22,GWWF,≤ 0.25
23,NETS,≤ 0.25
24,YQCD,≤ 0.25

row,Variant,enrichment ratio
1,HYLY,≤ 0.25
2,KLLW,≤ 0.25
3,TQYH,0.375
4,EMAM,≤ 0.25
5,RPSV,≤ 0.25
6,THKM,≤ 0.25
7,LHAW,≤ 0.25
8,RKAL,≤ 0.25
9,HWAL,≤ 0.25
10,SLNN,≤ 0.25
11,FGSN,≤ 0.25
12,FPYS,≤ 0.25
13,EFQY,≤ 0.25
14,RFQA,≤ 0.25
15,SMYI,≤ 0.25
16,MLRA,≤ 0.25
17,KHPA,≤ 0.25
18,RYPF,≤ 0.25
19,YVRF,≤ 0.25
20,YYWH,≤ 0.25
21,RFGN,≤ 0.25
22,HLSF,≤ 0.25
23,LRNS,≤ 0.25
24,SGNK,≤ 0.25

row,Variant,enrichment ratio
1,EDQF,≤ 0.25
2,FIIM,≤ 0.25
3,VWGR,≤ 0.25
4,KPAS,≤ 0.25
5,TCTE,≤ 0.25
6,YGNF,≤ 0.25
7,HFRD,≤ 0.25
8,NRTE,≤ 0.25
9,THVV,1.48
10,QLTN,≤ 0.25
11,GAPT,≤ 0.25
12,AACH,≤ 0.25
13,IEFE,≤ 0.25
14,MCRC,≤ 0.25
15,IYYL,≤ 0.25
16,KFTF,≤ 0.25
17,QSDR,≤ 0.25
18,KQEN,≤ 0.25
19,RYLM,≤ 0.25
20,LWCH,≤ 0.25
21,DFDY,≤ 0.25
22,WQAL,≤ 0.25
23,KCHP,≤ 0.25
24,IPED,≤ 0.25

row,Variant,enrichment ratio
1,DGAF,≤ 0.25
2,KCCC,≤ 0.25
3,YHYN,≤ 0.25
4,TRAP,≤ 0.25
5,VWIM,≤ 0.25
6,VMVI,≤ 0.25
7,MGST,1.23
8,LIAL,≤ 0.25
9,QDEY,≤ 0.25
10,KYSG,≤ 0.25
11,RSFK,≤ 0.25
12,YSCT,≤ 0.25
13,IDLT,≤ 0.25
14,TCSF,8.33
15,WEIK,≤ 0.25
16,NYNH,≤ 0.25
17,AAKR,≤ 0.25
18,YKTM,≤ 0.25
19,DNMA,≤ 0.25
20,FICY,≤ 0.25
21,MHTS,≤ 0.25
22,PDRI,≤ 0.25
23,SRNC,≤ 0.25
24,PIQD,≤ 0.25

row,Variant,enrichment ratio
1,GHKK,≤ 0.25
2,STGA,2.45
3,WDPH,≤ 0.25
4,EEVH,≤ 0.25
5,AGKV,≤ 0.25
6,NNHA,≤ 0.25
7,EHLQ,≤ 0.25
8,EQPA,≤ 0.25
9,DNPA,≤ 0.25
10,YEAI,≤ 0.25
11,DPER,≤ 0.25
12,SLKF,≤ 0.25
13,KPYA,≤ 0.25
14,EDDQ,≤ 0.25
15,YGYG,≤ 0.25
16,PYPS,≤ 0.25
17,QESW,≤ 0.25
18,LWII,≤ 0.25
19,HQLS,≤ 0.25
20,KMPI,≤ 0.25
21,ERRD,≤ 0.25
22,PVSP,≤ 0.25
23,DKVE,≤ 0.25
24,TRWC,≤ 0.25

row,Variant,enrichment ratio
1,GTCR,≤ 0.25
2,LAPY,≤ 0.25
3,RIEH,≤ 0.25
4,LFEV,≤ 0.25
5,QTSI,5.6
6,WCHW,≤ 0.25
7,FWIF,≤ 0.25
8,YSNT,≤ 0.25
9,QRPQ,≤ 0.25
10,MGRP,≤ 0.25
11,ETFQ,≤ 0.25
12,AMDY,≤ 0.25
13,PKAH,≤ 0.25
14,LVAK,≤ 0.25
15,YTMG,0.723
16,ESIP,≤ 0.25
17,YEWC,≤ 0.25
18,EFSK,≤ 0.25
19,AFCE,≤ 0.25
20,MPDT,≤ 0.25
21,NVWF,≤ 0.25
22,FPPK,≤ 0.25
23,HSPV,≤ 0.25
24,WERH,≤ 0.25

row,Variant,enrichment ratio
1,VINY,≤ 0.25
2,ETLA,≤ 0.25
3,FQKR,≤ 0.25
4,ITLG,5.37
5,SRGP,≤ 0.25
6,IHKF,≤ 0.25
7,NSHL,≤ 0.25
8,FAAD,≤ 0.25
9,VPQQ,≤ 0.25
10,IIHV,≤ 0.25
11,QVTP,≤ 0.25
12,SKYH,≤ 0.25
13,MLEW,≤ 0.25
14,LIMS,≤ 0.25
15,YMHP,≤ 0.25
16,NTGL,≤ 0.25
17,PLLK,≤ 0.25
18,NEDM,≤ 0.25
19,SFSC,≤ 0.25
20,QNCR,≤ 0.25
21,MHPQ,≤ 0.25
22,VLMM,≤ 0.25
23,TIHV,10.4
24,IQLG,1.09

row,Variant,enrichment ratio
1,AEHQ,≤ 0.25
2,DMWV,≤ 0.25
3,NGDN,≤ 0.25
4,SFHG,≤ 0.25
5,YQGQ,≤ 0.25
6,EIHM,≤ 0.25
7,LPGK,≤ 0.25
8,SYPC,≤ 0.25
9,DCMV,≤ 0.25
10,INMQ,≤ 0.25
11,VAED,≤ 0.25
12,TLHT,≤ 0.25
13,MSFS,2.8
14,PEPK,≤ 0.25
15,ITLR,≤ 0.25
16,PPYW,≤ 0.25
17,ITPS,≤ 0.25
18,WYHI,≤ 0.25
19,EDKS,≤ 0.25
20,QDMP,≤ 0.25
21,IPGL,≤ 0.25
22,FLTR,≤ 0.25
23,IHYV,≤ 0.25
24,MYCE,≤ 0.25

row,Variant,enrichment ratio
1,FISN,≤ 0.25
2,RLQD,≤ 0.25
3,MSYS,7.31
4,MHFS,≤ 0.25
5,PAMG,≤ 0.25
6,EWLS,≤ 0.25
7,ISAC,≤ 0.25
8,GFAN,≤ 0.25
9,TTWM,1.91
10,STKQ,≤ 0.25
11,IVVM,≤ 0.25
12,AART,≤ 0.25
13,KIGD,≤ 0.25
14,ICHT,≤ 0.25
15,RVSG,≤ 0.25
16,AAHN,≤ 0.25
17,NPGF,≤ 0.25
18,HNIK,≤ 0.25
19,QCKC,≤ 0.25
20,MKNN,≤ 0.25
21,MDSE,≤ 0.25
22,YDND,≤ 0.25
23,PISE,≤ 0.25
24,MLVP,≤ 0.25

row,Variant,enrichment ratio
1,PYCL,≤ 0.25
2,SLAE,1.31
3,LNCL,≤ 0.25
4,EHNA,≤ 0.25
5,GIMP,≤ 0.25
6,VGPA,≤ 0.25
7,RSPQ,≤ 0.25
8,FVWW,≤ 0.25
9,IPKT,≤ 0.25
10,RMSP,≤ 0.25
11,MRVH,0.437
12,MCLL,8.32
13,FKHL,≤ 0.25
14,ELPW,≤ 0.25
15,TEKI,≤ 0.25
16,HSTH,≤ 0.25
17,IALY,≤ 0.25
18,NMNI,≤ 0.25
19,LVWQ,≤ 0.25
20,RCPV,≤ 0.25
21,LDGT,≤ 0.25
22,PFMV,≤ 0.25
23,STKV,≤ 0.25
24,APLN,≤ 0.25

row,Variant,enrichment ratio
1,TQCF,0.891
2,EDPA,≤ 0.25
3,MPRH,≤ 0.25
4,YCYH,≤ 0.25
5,VIAW,≤ 0.25
6,AWHA,≤ 0.25
7,PAAI,≤ 0.25
8,TYEQ,≤ 0.25
9,STQQ,7.76
10,LWAW,≤ 0.25
11,QYNF,≤ 0.25
12,TDGF,≤ 0.25
13,LDKA,≤ 0.25
14,NQPE,≤ 0.25
15,RIAA,≤ 0.25
16,PHGH,≤ 0.25
17,NICN,≤ 0.25
18,TMEH,≤ 0.25
